Assay results from PubChem BioAssay AID1346428 (National Center for Advancing Translational Sciences (NCATS), 2018).
Hit rate of the full screen: of about 48,000 compounds, about 1,200 (2.5%) were called active. Inconclusive results (about 2%) are left out.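 Rule for the calls: active = activation of at least 60% and not above a set upper limit (about 1 call in 100 departs from these limits); inconclusive = activation of 40% to 60%, or above that upper limit; inactive = activation under 40%.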 The list shows a part of the results.

biological target: Probable G-protein coupled receptor 32 (Homo sapiens) (UniProt O75388); assay: qHTS for Agonists of Human Resolvin D1 Receptor DRV1; conditions: CHO-K1 GPR32 beta-arrestin PathHunter luminescence, 90 min; at 76.9 µM; active compounds read high; zero percent set by DMSO-only wells; note: 0% is about no effect
Summary of the method: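 Using DMSO wells as EC0, agonist-induced signal was taken as chemiluminescence from beta-Gal reconstituted upon beta-arrestin recruitment to GPR32 in CHO-K1 cells after 90 min compound treatment.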

Sequence of UniProt O75388 (O75388 whole entry, looked up): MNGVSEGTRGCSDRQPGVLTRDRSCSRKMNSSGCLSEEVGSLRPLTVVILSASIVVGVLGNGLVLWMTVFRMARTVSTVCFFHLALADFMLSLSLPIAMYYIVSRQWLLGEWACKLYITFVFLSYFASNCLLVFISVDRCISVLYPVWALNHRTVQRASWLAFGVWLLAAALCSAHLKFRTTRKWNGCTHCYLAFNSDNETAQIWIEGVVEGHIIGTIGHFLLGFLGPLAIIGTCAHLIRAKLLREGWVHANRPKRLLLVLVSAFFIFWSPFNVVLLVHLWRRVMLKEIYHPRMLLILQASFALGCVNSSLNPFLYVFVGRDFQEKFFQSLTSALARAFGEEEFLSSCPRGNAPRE

Row | Structure (SMILES) | activation
1 | COc1cccc(NC(=O)c2oc3ccc(S(=O)(=O)N4CCCCCC4)cc3c2C)c1 | inactive: 6.33%
2 | CCOc1ccc(S(=O)(=O)N2CCC(c3ccncc3)CC2)cc1 | inactive: 13%
3 | Cc1cc(C)n(-c2nc(C)c(C)c(=O)n2CC(=O)Nc2cccc([N+](=O)[O-])c2)n1 | inactive: -14.6%
4 | CCOC(=O)c1ccc(NC(=O)Cn2c3ncccc3c(=O)n2-c2ccc(C)c(C)c2)cc1 | inactive: -21.4%
5 | COc1ccc(-c2cc(C(=O)NCCc3ccc(OC)c(OC)c3)c3c(-c4ccc(F)cc4)[nH]nc3n2)cc1 | inactive: 8.97%
6 | COC(=O)c1ccccc1NC(=O)c1nn(-c2ccc(OC)cc2)c(=O)c2c1c1ccccc1n2C | inactive: -10.4%
7 | CCCCCCCCCCCCCCCCCC(=O)OC(CC(=O)O)C[N+](C)(C)C (stereo unspecified) | inactive: 15.8%
8 | COc1cccc(NC(=O)C2CCN(S(=O)(=O)c3ccc4[nH]c5c(c4c3)CCCCC5)CC2)c1 | inactive: 0.0371%
9 | CCOC(=O)C(C)Sc1nc(-c2ccccc2)ccc1C#N (stereo unspecified) | inactive: 21.4%
10 | COc1ccccc1NC(=O)C1CCCN(c2ncnc3onc(-c4ccc(F)cc4)c23)C1 (stereo unspecified) | inactive: -8.47%
11 | CCC(C)NC(=O)c1c(C)oc2nc(C)nc(N3CCOCC3)c12 (stereo unspecified) | inactive: -11%
12 | Cc1ccc(NC(=O)c2ccc3snnc3c2)cc1C | inactive: 27.2%
13 | Cc1cc(Nc2ccc(Br)c(C)c2)n2nc(-c3ccco3)nc2n1 | inactive: 13.9%
14 | COc1cccc(N2CCN(c3ncnc4c3c(-c3ccccc3)cn4-c3cccc(C(F)(F)F)c3)CC2)c1 | inactive: -29.9%
15 | CCN(CC)C(=O)Cn1c(=O)n(CCc2ccccc2)c(=O)c2ccccc21 | inactive: -3.05%
16 | CCCNC(=O)N1[C@H](c2cccs2)[C@@H](C)C(=O)[C@@H](C)[C@@H]1c1cccs1 | inactive: -16.5%
17 | CCOC(=O)Cc1c(C(=O)OCC)nnc2c(-c3ccccc3)c(C)nn12 | inactive: -50%
18 | CC(=O)c1ccc(NC(=O)CC2Oc3ccc(C)cc3NC2=O)cc1 (stereo unspecified) | active: 64.8%
19 | COCCNc1oc(-c2ccc(OC)cc2)nc1C#N | inactive: -0.164%
20 | CCOC(=O)c1cccc(NC(=O)N2CC=C(c3c[nH]c4ccccc34)CC2)c1 | inactive: -14.4%
21 | COc1ccc(OC)c(NC(=O)N2CC3CCCN3c3ccccc32)c1 (stereo unspecified) | inactive: 11.7%

Row | Structure (SMILES) | activation
22 | CN[C@H](CC(C)C)C(=O)N[C@H]1C(=O)N[C@@H](CC(N)=O)C(=O)N[C@@H]2C(=O)N[C@H]3C(=O)N[C@H](C(=O)N[C@H](C(=O)O)c4cc(O)cc(O)c4-c4cc3ccc4O)[C@H](O)c3ccc(c(Cl)c3)Oc3cc2cc(c3O[C@@H]2O[C@H](CO)[C@@H](O)[C@H](O)[C@@H]2O[C@H]2C[C@](C)(N)[C@H](O)[C@H](C)O2)Oc2ccc(cc2Cl)[C@H]1O | inactive: -6.85%
23 | CCOC(=O)c1ccccc1NC(=O)COC(=O)CC(C)(C)CC1=NS(=O)(=O)c2ccccc2N1 | active: 84.4%
24 | Cc1cc(C)n2nc(CNS(=O)(=O)c3ccccc3)nc2n1 | inactive: 29%
25 | COc1ccc(S(=O)(=O)NCC(c2ccc(N(C)C)cc2)N2CCc3ccccc32)cc1F (stereo unspecified) | inactive: -35.2%
26 | CCCN(C(=O)Nc1cn(CC(C)C)c(=O)c2ccccc12)c1ccc(F)cc1 | inactive: -15.4%
27 | O=C(NCC(c1ccco1)S(=O)(=O)c1cccs1)c1ccc(Cl)cc1 (stereo unspecified) | inactive: 1.18%
28 | Cc1ccc2oc(=O)n(CCNC(=O)Nc3ccc(Cl)cc3)c2c1 | inactive: 25.9%
29 | Cc1cc(C(=O)NCc2ccccc2Cl)c2c(C)nn(-c3cccc(F)c3)c2n1 | inactive: -10.5%
30 | CC(=O)N1CCc2c(sc3c2c(=O)n(-c2ccc(C)cc2)c(=O)n3Cc2ccccc2C)C1 | inactive: -5.04%
31 | CCCCNC(=O)c1ccc2c(c1)NC(=O)C(CS(=O)(=O)Cc1ccc(C)cc1)N2 (stereo unspecified) | inactive: -3.24%
32 | Cc1ccc(C(=O)Nc2ccc3oc(-c4ccccc4C)nc3c2)cc1 | active: 75.9%
33 | Cc1cccc(C)c1NC(=O)CN1CCCCCC1 | inactive: 3.5%
34 | Cc1cc(NC(=O)c2cccn2-c2nnc(N3CCCCC3)s2)ccc1Br | inactive: -30.8%
35 | CCN1CCN(c2oc(/C=C/c3cc(OC)c(OC)c(OC)c3)nc2C#N)CC1 | inactive: -0.347%
36 | CC(C)C(=O)OCc1cc(=O)n2nc(C3CC3)sc2n1 | inactive: 6.23%
37 | CCCCN(C)S(=O)(=O)c1ccc(C(=O)Nc2ccc(-c3nc4ccc(C)cc4s3)cc2)cc1 | inactive: -5.42%
38 | COc1cc(OC)c(C2C(C(=O)Nc3ccccc3)=C(C)Nc3ncnn32)cc1OC (stereo unspecified) | inactive: 10.3%
39 | COc1ccc(-c2noc(CC(=O)Nc3ccc(C)c(F)c3)n2)cc1 | inactive: 28%
40 | CCc1ccc(C2c3c(oc4cc(C)c(C)cc4c3=O)C(=O)N2c2nc(C)c(C(=O)OC)s2)cc1 (stereo unspecified) | inactive: 3.87%
41 | CCC1CN(C(=O)Nc2cc(Cl)c(OC)cc2OC)c2ccccc2O1 (stereo unspecified) | inactive: -27.6%
